The supplement of paper PMC8728848
The other results are listed elsewhere or left out.

Columns and labels:
Assay in all cases: glycan array binding signal (z-score within array); higher = stronger binding
Conditions in all cases: glycan notation: IUPAC condensed, linker removed
[1] = target: Gal(b1-4)GlcNAc(b1-2)[Gal(b1-4)GlcNAc(b1-6)]Man(a1-6)[GlcNAc(b1-4)][Gal(b1-4)GlcNAc(b1-2)Man(a1-3)]Man(b1-4)GlcNAc(b1-4)GlcNAc
Summary of the method: (§1)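 From the Consortium for Functional Glycomics database, 3228 arrays were curated, keeping only those whose protein sequence was available. Binding is given as a within-array Z-score averaged across arrays sharing a protein sequence and across linkers. Negative Z-scores can be read as non-binding.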

[2] = target: Gal(b1-4)GlcNAc(b1-2)[Gal(b1-4)GlcNAc(b1-6)]Man(a1-6)[GlcNAc(b1-4)][Gal(b1-4)GlcNAc(b1-2)[Gal(b1-4)GlcNAc(b1-4)]Man(a1-3)]Man(b1-4)GlcNAc(b1-4)[Fuc(a1-6)]GlcNAc
Summary of the method: as §1

[3] = target: Gal(b1-4)GlcNAc(b1-3)Gal(b1-3)GalNAc
Summary of the method: as §1

[4] = target: Gal(b1-4)GlcNAc(b1-3)Gal(b1-3)GlcNAc
Summary of the method: as §1

[5] = target: Gal(b1-4)GlcNAc(b1-3)Gal(b1-4)Glc
Summary of the method: as §1

[6] = target: Gal(b1-4)GlcNAc(b1-3)Gal(b1-4)GlcNAc
Summary of the method: as §1

[7] = target: Gal(b1-4)GlcNAc(b1-3)Gal(b1-4)GlcNAc(b1-2)Man(a1-3)[Gal(b1-4)GlcNAc(b1-3)Gal(b1-4)GlcNAc(b1-2)Man(a1-6)]Man(b1-4)GlcNAc(b1-4)GlcNAc
Summary of the method: as §1

[8] = target: Gal(b1-4)GlcNAc(b1-3)Gal(b1-4)GlcNAc(b1-2)Man(a1-3)[Gal(b1-4)GlcNAc(b1-3)Gal(b1-4)GlcNAc(b1-2)Man(a1-6)]Man(b1-4)GlcNAc(b1-4)[Fuc(a1-6)]GlcNAc
Summary of the method: as §1

[9] = target: Gal(b1-4)GlcNAc(b1-3)Gal(b1-4)GlcNAc(b1-2)[Gal(b1-4)GlcNAc(b1-3)Gal(b1-4)GlcNAc(b1-6)]Man(a1-6)[Gal(b1-4)GlcNAc(b1-3)Gal(b1-4)GlcNAc(b1-2)Man(a1-3)]Man(b1-4)GlcNAc(b1-4)GlcNAc
Summary of the method: as §1

[10] = target: Gal(b1-4)GlcNAc(b1-3)Gal(b1-4)GlcNAc(b1-2)[Gal(b1-4)GlcNAc(b1-3)Gal(b1-4)GlcNAc(b1-6)]Man(a1-6)[Gal(b1-4)GlcNAc(b1-3)Gal(b1-4)GlcNAc(b1-2)Man(a1-3)]Man(b1-4)GlcNAc(b1-4)[Fuc(a1-6)]GlcNAc
Summary of the method: as §1

[11] = target: Gal(b1-4)GlcNAc(b1-3)Gal(b1-4)GlcNAc(b1-3)Gal(b1-4)GlcNAc
Summary of the method: as §1

[12] = target: Gal(b1-4)GlcNAc(b1-3)Gal(b1-4)GlcNAc(b1-3)Gal(b1-4)GlcNAc(b1-2)Man(a1-3)[Gal(b1-4)GlcNAc(b1-3)Gal(b1-4)GlcNAc(b1-3)Gal(b1-4)GlcNAc(b1-2)Man(a1-6)]Man(b1-4)GlcNAc(b1-4)GlcNAc
Summary of the method: as §1

[13] = target: Gal(b1-4)GlcNAc(b1-3)Gal(b1-4)GlcNAc(b1-3)Gal(b1-4)GlcNAc(b1-2)Man(a1-3)[Gal(b1-4)GlcNAc(b1-3)Gal(b1-4)GlcNAc(b1-3)Gal(b1-4)GlcNAc(b1-2)Man(a1-6)]Man(b1-4)GlcNAc(b1-4)[Fuc(a1-6)]GlcNAc
Summary of the method: as §1

[14] = target: Gal(b1-4)GlcNAc(b1-3)Gal(b1-4)GlcNAc(b1-3)Gal(b1-4)GlcNAc(b1-2)[Gal(b1-4)GlcNAc(b1-3)Gal(b1-4)GlcNAc(b1-3)Gal(b1-4)GlcNAc(b1-6)]Man(a1-6)[Gal(b1-4)GlcNAc(b1-3)Gal(b1-4)GlcNAc(b1-3)Gal(b1-4)GlcNAc(b1-2)Man(a1-3)]Man(b1-4)GlcNAc(b1-4)[Fuc(a1-6)]GlcNAc
Summary of the method: as §1

[15] = target: Gal(b1-4)GlcNAc(b1-3)Gal(b1-4)GlcNAc(b1-3)Gal(b1-4)GlcNAc(b1-3)Gal(b1-4)GlcNAc(b1-2)Man(a1-3)[Gal(b1-4)GlcNAc(b1-3)Gal(b1-4)GlcNAc(b1-3)Gal(b1-4)GlcNAc(b1-3)Gal(b1-4)GlcNAc(b1-2)Man(a1-6)]Man(b1-4)GlcNAc(b1-4)GlcNAc
Summary of the method: as §1

[16] = target: Gal(b1-4)GlcNAc(b1-3)Gal(b1-4)GlcNAc(b1-3)Gal(b1-4)GlcNAc(b1-3)Gal(b1-4)GlcNAc(b1-2)Man(a1-3)[Gal(b1-4)GlcNAc(b1-3)Gal(b1-4)GlcNAc(b1-3)Gal(b1-4)GlcNAc(b1-3)Gal(b1-4)GlcNAc(b1-2)Man(a1-6)]Man(b1-4)GlcNAc(b1-4)[Fuc(a1-6)]GlcNAc
Summary of the method: as §1

[17] = target: Gal(b1-4)GlcNAc(b1-3)Gal(b1-4)GlcNAc(b1-3)Gal(b1-4)GlcNAc(b1-3)Gal(b1-4)GlcNAc(b1-2)[Gal(b1-4)GlcNAc(b1-3)Gal(b1-4)GlcNAc(b1-3)Gal(b1-4)GlcNAc(b1-3)Gal(b1-4)GlcNAc(b1-6)]Man(a1-6)[Gal(b1-4)GlcNAc(b1-3)Gal(b1-4)GlcNAc(b1-3)Gal(b1-4)GlcNAc(b1-3)Gal(b1-4)GlcNAc(b1-2)Man(a1-3)]Man(b1-4)GlcNAc(b1-4)[Fuc(a1-6)]GlcNAc
Summary of the method: as §1

[18] = target: Gal(b1-4)GlcNAc(b1-3)Gal(b1-4)GlcNAc(b1-3)Gal(b1-4)GlcNAc(b1-3)Gal(b1-4)GlcNAc(b1-3)Gal(b1-4)GlcNAc(b1-2)Man(a1-3)[Gal(b1-4)GlcNAc(b1-3)Gal(b1-4)GlcNAc(b1-3)Gal(b1-4)GlcNAc(b1-3)Gal(b1-4)GlcNAc(b1-3)Gal(b1-4)GlcNAc(b1-2)Man(a1-6)]Man(b1-4)GlcNAc(b1-4)GlcNAc
Summary of the method: as §1

[19] = target: Gal(b1-4)GlcNAc(b1-3)Gal(b1-4)GlcNAc(b1-3)Gal(b1-4)GlcNAc(b1-3)Gal(b1-4)GlcNAc(b1-3)Gal(b1-4)GlcNAc(b1-2)Man(a1-3)[Gal(b1-4)GlcNAc(b1-3)Gal(b1-4)GlcNAc(b1-3)Gal(b1-4)GlcNAc(b1-3)Gal(b1-4)GlcNAc(b1-3)Gal(b1-4)GlcNAc(b1-2)Man(a1-6)]Man(b1-4)GlcNAc(b1-4)[Fuc(a1-6)]GlcNAc
Summary of the method: as §1

[20] = target: Gal(b1-4)GlcNAc(b1-3)Gal(b1-4)GlcNAc(b1-3)Gal(b1-4)GlcNAc(b1-3)Gal(b1-4)GlcNAc(b1-3)Gal(b1-4)GlcNAc(b1-2)[Gal(b1-4)GlcNAc(b1-3)Gal(b1-4)GlcNAc(b1-3)Gal(b1-4)GlcNAc(b1-3)Gal(b1-4)GlcNAc(b1-3)Gal(b1-4)GlcNAc(b1-6)]Man(a1-6)[Gal(b1-4)GlcNAc(b1-3)Gal(b1-4)GlcNAc(b1-3)Gal(b1-4)GlcNAc(b1-3)Gal(b1-4)GlcNAc(b1-3)Gal(b1-4)GlcNAc(b1-2)Man(a1-3)]Man(b1-4)GlcNAc(b1-4)[Fuc(a1-6)]GlcNAc
Summary of the method: as §1

[21] = target: Gal(b1-4)GlcNAc(b1-3)Gal(b1-4)GlcNAc(b1-3)Gal(b1-4)GlcNAc(b1-3)Gal(b1-4)GlcNAc(b1-3)Gal(b1-4)GlcNAc(b1-3)Gal(b1-4)GlcNAc(b1-2)Man(a1-3)[Gal(b1-4)GlcNAc(b1-3)Gal(b1-4)GlcNAc(b1-3)Gal(b1-4)GlcNAc(b1-3)Gal(b1-4)GlcNAc(b1-3)Gal(b1-4)GlcNAc(b1-3)Gal(b1-4)GlcNAc(b1-2)Man(a1-6)]Man(b1-4)GlcNAc(b1-4)GlcNAc
Summary of the method: as §1

[22] = target: Gal(b1-4)GlcNAc(b1-3)Gal(b1-4)GlcNAc(b1-3)GalNAc
Summary of the method: as §1

[23] = target: Gal(b1-4)GlcNAc(b1-3)Gal(b1-4)GlcNAc(b1-3)[Gal(b1-4)GlcNAc(b1-3)Gal(b1-4)GlcNAc(b1-6)]GalNAc
Summary of the method: as §1

[24] = target: Gal(b1-4)GlcNAc(b1-3)Gal(b1-4)GlcNAc(b1-6)[Gal(b1-3)]GalNAc
Summary of the method: as §1

[25] = target: Gal(b1-4)GlcNAc(b1-3)Gal(b1-4)[Fuc(a1-3)]GlcNAc(b1-3)Gal(b1-4)[Fuc(a1-3)]GlcNAc
Summary of the method: as §1

[26] = target: Gal(b1-4)GlcNAc(b1-3)GalNAc
Summary of the method: as §1

[27] = target: Gal(b1-4)GlcNAc(b1-3)[Fuc(a1-3)GlcNAc(b1-6)]Gal(b1-4)Glc
Summary of the method: as §1

[28] = target: Gal(b1-4)GlcNAc(b1-3)[Gal(b1-4)GlcNAc(b1-6)]Gal(b1-4)GlcNAc
Summary of the method: as §1

[29] = target: Gal(b1-4)GlcNAc(b1-3)[GlcNAc(b1-6)]Gal(b1-4)GlcNAc
Summary of the method: as §1

[30] = target: Gal(b1-4)GlcNAc(b1-6)Gal(b1-4)GlcNAc
Summary of the method: as §1

[31] = target: Gal(b1-4)GlcNAc(b1-6)GalNAc
Summary of the method: as §1

[32] = target: Gal(b1-4)GlcNAc(b1-6)[Gal(b1-3)]GalNAc
Summary of the method: as §1

[33] = target: Gal(b1-4)GlcNAc(b1-6)[Gal(b1-4)GlcNAc(b1-3)]GalNAc
Summary of the method: as §1

Gal(b1-4)GlcNAc6P = target: Gal(b1-4)GlcNAc6P
Summary of the method: as §1

Gal(b1-6)Gal = target: Gal(b1-6)Gal
Summary of the method: as §1

Gal3S(b1-3)GalNAc = target: Gal3S(b1-3)GalNAc
Summary of the method: as §1

Gal3S(b1-3)GlcNAc = target: Gal3S(b1-3)GlcNAc
Summary of the method: as §1

[34] = target: Gal3S(b1-3)[Fuc(a1-4)]GlcNAc
Summary of the method: as §1

B1: ECL (Erythrina cristagalli), Q6YD91 (protein)
chain: VETISFSFSEFEPGNNDLTLQGAAIITQSGVLQLTKINQNGMPAWDSTGRTLYTKPVHIWDMTTGTVASFETRFSFSIEQPYTRPLPADGLVFFMGPTKSKPAQGYGYLGVFNNSKQDNSYQTLAVEFDTFSNPWDPPQVPHIGIDVNSIRSIKTQPFQLDNGQVANVVIKYDASSKILLAVLVYPSSGAIYTIAEIVDVKQVLPEWVDVGLSGATGAQRDAAETHDVYSWSFHASLPETND
glycan array binding signal (z-score) [1]: 1.42
glycan array binding signal (z-score) [2]: 2.43
glycan array binding signal (z-score) [3]: -0.069
glycan array binding signal (z-score) [4]: -0.064
glycan array binding signal (z-score) [5]: 0.489
glycan array binding signal (z-score) [6]: 0.763
glycan array binding signal (z-score) [7]: 1.7
glycan array binding signal (z-score) [8]: 4.13
glycan array binding signal (z-score) [9]: 1.13
glycan array binding signal (z-score) [10]: 6.18
glycan array binding signal (z-score) [11]: 0.335
glycan array binding signal (z-score) [12]: 3.06
glycan array binding signal (z-score) [13]: 3.27
glycan array binding signal (z-score) [14]: 5.28
glycan array binding signal (z-score) [15]: 3.58
glycan array binding signal (z-score) [16]: 2.95
glycan array binding signal (z-score) [17]: 5.63
glycan array binding signal (z-score) [18]: 3.35
glycan array binding signal (z-score) [19]: 2.87
glycan array binding signal (z-score) [20]: 5.32
glycan array binding signal (z-score) [21]: 2.02
glycan array binding signal (z-score) [22]: 2.25
glycan array binding signal (z-score) [23]: 1.45
glycan array binding signal (z-score) [24]: 1.11
glycan array binding signal (z-score) [25]: 0.231
glycan array binding signal (z-score) [26]: -0.029
glycan array binding signal (z-score) [27]: 0.144
glycan array binding signal (z-score) [28]: 3.6
glycan array binding signal (z-score) [29]: 1.35
glycan array binding signal (z-score) [30]: 0.209
glycan array binding signal (z-score) [31]: 0.199
glycan array binding signal (z-score) [32]: -0.019
glycan array binding signal (z-score) [33]: 0.77
glycan array binding signal (z-score) (Gal(b1-4)GlcNAc6P): -0.106
glycan array binding signal (z-score) (Gal(b1-6)Gal): -0.044
glycan array binding signal (z-score) (Gal3S(b1-3)GalNAc): -0.312
glycan array binding signal (z-score) (Gal3S(b1-3)GlcNAc): -0.33
glycan array binding signal (z-score) [34]: -0.191
